Results from the supplement of paper PMC10126150.
Sequences with one replicate were seen in a single cluster, so their values are uncertain.

System: ATP
Test: switch fluorescence ratio, 500 uM ATP over buffer (Cy3 cluster intensity, sum of 5 cycles each) (fold (ratio)); higher = stronger signal-on switching upon ATP binding; sequences stand for … in TCGTCGGCAGCGTCAGATGTGTATAAGAGACAGTTTTTTTTTTTTTTTTTTTTTTTTT…TC
Conditions: aptamer strand: ATP DNA aptamer (quencher-CACCTGGGGGAGTATTGCGGAGGAAGG + anchor), 100 nM annealed; ATP concentration: 500 uM; one replicate
Summary of the method: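 Between each of five buffer/ATP cycles, the flow-cell was stripped with NaOH and re-annealed. Each cycle imaged Cy3-labelled switching-strand clusters, annealed to 100 nM quencher-labelled ATP aptamer on a modified Illumina MiSeq flow-cell, first in selection buffer and then after 15 min with 500 uM ATP at 22 °C. The fluorescence ratio is summed target-cycle over summed buffer-cycle Cy3 intensity per cluster, averaged per switch-domain sequence, with clusters outside 100-1000 RFU excluded.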
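Further: ATP exposure 15 min at 22 °C before imaging.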

## GAGTAGCCCC
  switch fluorescence ratio: 1.02

## CTGCAGTATT
  switch fluorescence ratio: 1.28

## CTGAGGGTCG
  switch fluorescence ratio: 1.08

## TTGATTGCTC
  switch fluorescence ratio: 0.947

## TAAAAGTTGC
  switch fluorescence ratio: 0.961

## CGTACGTGT
  switch fluorescence ratio: 1.14

## ATATGGCAAA
  switch fluorescence ratio: 1.04

## CAATTAGCTT
  switch fluorescence ratio: 0.996

## TAACACGGCA
  switch fluorescence ratio: 1.1

## TATGCAGCGC
  switch fluorescence ratio: 1.03

## GCCGAGTTTT
  switch fluorescence ratio: 1.06

## CTGGAGCCT
  switch fluorescence ratio: 1.03

## TAACAACGGT
  switch fluorescence ratio: 1.03

## TTAACGTTGC
  switch fluorescence ratio: 1.16

## GACAGTGACG
  switch fluorescence ratio: 1.09

## CTAACTTTTA
  switch fluorescence ratio: 1.04

## CTTGATATGT
  switch fluorescence ratio: 1.03

## GGATTTTCAG
  switch fluorescence ratio: 1.02

## ATAATACTAT
  switch fluorescence ratio: 1

## TTGCGGAGCG
  switch fluorescence ratio: 1.01

## CTACGATTGG
  switch fluorescence ratio: 1.02

## TCTCTGATAG
  switch fluorescence ratio: 1.03

## GCATGAGGCC
  switch fluorescence ratio: 0.962

## TCTCAATGGG
  switch fluorescence ratio: 1.03

## CGGATCCGG
  switch fluorescence ratio: 0.996

## GAGGAGTTAG
  switch fluorescence ratio: 1.02

## TCTCAAGGTC
  switch fluorescence ratio: 1.01

## CATTAGGCG
  switch fluorescence ratio: 0.993

## ACGTTTTGCA
  switch fluorescence ratio: 1.06

## TTTGCGGCCC
  switch fluorescence ratio: 1.03

## CGCCTGATAT
  switch fluorescence ratio: 1

## TATAATATGG
  switch fluorescence ratio: 1

## AACTCCTGTT
  switch fluorescence ratio: 1.02

## AGCGGTCCGC
  switch fluorescence ratio: 1.05

## AATTATTGAC
  switch fluorescence ratio: 1.05

## GATTGGGACG
  switch fluorescence ratio: 0.991

## ATCTCTCGGA
  switch fluorescence ratio: 0.967

## ATCACGCCGG
  switch fluorescence ratio: 1.02

## ACCGCTTCCC
  switch fluorescence ratio: 1.9

## ATCCCGAATT
  switch fluorescence ratio: 0.995

## TACGATAGCA
  switch fluorescence ratio: 1.12

## TCCTAGGGGC
  switch fluorescence ratio: 1.1

## CAAATCGGA
  switch fluorescence ratio: 1.02

## CTGGAAACCA
  switch fluorescence ratio: 1.07

## CTGGAAAAGA
  switch fluorescence ratio: 1.03

## ATGTAGCTAA
  switch fluorescence ratio: 1.17

## GTTCTTAGTT
  switch fluorescence ratio: 0.952

## GGGTGTTGT
  switch fluorescence ratio: 0.949

## CAAGCCTTTT
  switch fluorescence ratio: 1

## CTCGACTCGC
  switch fluorescence ratio: 1.08

## AAGATTTCGA
  switch fluorescence ratio: 0.923

## CGATTTCTTT
  switch fluorescence ratio: 0.974

## GGTGAATCAC
  switch fluorescence ratio: 1.04

## GCCTGACGAA
  switch fluorescence ratio: 1.73

## GATCTTTTTC
  switch fluorescence ratio: 0.962

## TGATACGAGA
  switch fluorescence ratio: 1.02

## AACACGAGGC
  switch fluorescence ratio: 1.05

## TCAGTTCTGG
  switch fluorescence ratio: 1.01

## CGATTAACGC
  switch fluorescence ratio: 1.09

## TACATGAACG
  switch fluorescence ratio: 1.1

## TAGGGAGGTC
  switch fluorescence ratio: 1.02

## AAGATTAGTA
  switch fluorescence ratio: 1.03

## TCTGGTATAG
  switch fluorescence ratio: 1.02

## TGAAGCTAGG
  switch fluorescence ratio: 0.999

## TCGGCATGGT
  switch fluorescence ratio: 1.02

## TGGCGTCCAG
  switch fluorescence ratio: 0.994

## CATCCAACCC
  switch fluorescence ratio: 1.08

## TACTTCGTTT
  switch fluorescence ratio: 0.955

## GTTACGGTGC
  switch fluorescence ratio: 1.06

## TGTCCCCGCC
  switch fluorescence ratio: 1.08

## ACCCGTGGGT
  switch fluorescence ratio: 1.02

## TGCGCCCTTT
  switch fluorescence ratio: 1.03

## CGTAGAGCAT
  switch fluorescence ratio: 1

## GAAGGGAAGT
  switch fluorescence ratio: 0.994

## AAGTATACG
  switch fluorescence ratio: 1.03

## CATAATCGAC
  switch fluorescence ratio: 1.09

## TCGCATGCGG
  switch fluorescence ratio: 0.978

## AGCGATGTTA
  switch fluorescence ratio: 0.999

## TGAGCCGCAT
  switch fluorescence ratio: 1.21

## CAGTTTGGCG
  switch fluorescence ratio: 0.973

## GGAGATGAAA
  switch fluorescence ratio: 0.99

## GGATACATTT
  switch fluorescence ratio: 0.989

## CACTGGGTAC
  switch fluorescence ratio: 1.17

## GATACTGAGG
  switch fluorescence ratio: 1.04

## ATGTAGTGTT
  switch fluorescence ratio: 1.01
